# In paper PMC10668032:
# This is one part of the list. At the low end of the ranking the order means little.
# Biological target: SIX1 homeodomain (reference allele) (UniProt Q15475)
# Assay: universal protein binding microarray
# Details: Universal all-10-mer PBM (8x60K, AMADID 030236), 300 nM GST-tagged protein, Alexa Fluor 488 anti-GST; buffer, salt, pH and temperature not stated; high values mean tight binding; most listed sequences are background and not binding sites; double strand, one strand shown
row,Sequence,binding signal [E-score]
1,ATAGTTGC,0.0147
2,AGTACGCC,0.0371
3,GAAACCGC,0.0868
4,AGCGACGC,-0.199
5,ACCGCAAT,0.0086
6,CAAGCTTA,-0.13
7,GATGGAAC,-0.0968
8,CGTGGGCC,-0.262
9,AAACTACT,-0.0526
10,AGCGTGAT,0.203
11,CGTTATAC,0.204
12,GTTGCGAA,-0.214
13,AACGATCG,0.0917
14,AGCTGCCC,0.0523
15,CATATATC,0.341
16,AGTTTCCG,-0.225
17,ACATTATG,0.0141
18,AGAGGTTA,-0.169
19,CTAGCGCA,-0.153
20,CCGAGCGA,0.0573
21,GCTGAGTA,-0.161
22,GGTATACC,0.464
23,CTGGACCC,-0.11
24,GACTGTGA,-0.119
25,AGAATCCA,-0.00306

row,Sequence,binding signal [E-score]
1,ATATATTG,0.238
2,CTATACGC,0.215
3,AGACTCTC,-0.105
4,GTTAGCAA,-0.238
5,ACGCTTGC,-0.183
6,AGGCATTA,0.0197
7,CATGCGAA,0.0262
8,CAAATAGA,0.0634
9,ACGATCAC,0.177
10,CCTAATTC,-0.0644
11,GGATGGAC,-0.0612
12,CAGGATGC,-0.000825
13,CCATAAGG,-0.154
14,CGCAGGAC,-0.0697
15,ATCAGATA,0.378
16,AGGTGGGC,-0.238
17,GCGGTAGC,-0.0389
18,CCGGAAAG,-0.0595
19,ACGTTCAA,-0.157
20,AATCATCG,-0.0775
21,CTACGCTA,-0.15
22,GTACGGCA,-0.0935
23,CTTGATAC,0.442
24,AACTACAT,-0.0778
25,CGTTAACA,-0.138

row,Sequence,binding signal [E-score]
1,ATATGGAA,0.203
2,ATTTGCCG,-0.188
3,CAGCACAA,-0.049
4,AATGCAAT,-0.187
5,CCGAGAGG,-0.1
6,CTCAGCGC,-0.0859
7,CTTCGATC,0.152
8,GGTACGCA,-0.0176
9,GGGCCGGA,-0.0424
10,AGCTCATA,0.146
11,AAGACGAT,0.17
12,GAAATGCA,-0.0981
13,GAGCTCAA,-0.0962
14,ACCACACT,-0.0791
15,AGGATTCA,-0.0234
16,CCATTTGC,-0.189
17,AGATGGTC,-0.165
18,AGTCATCG,-0.0315
19,CCGCACTC,0.0317
20,GCGCTGCA,-0.253
21,GGAATCTA,0.0166
22,CTCCTATC,0.271
23,GAGAGAGA,0.0688
24,AATCGATA,0.335
25,GAAGAACA,-0.131

row,Sequence,binding signal [E-score]
1,AGAAGCAA,-0.255
2,AGAACCCC,0.034
3,AGGCTTAT,-0.0517
4,CCCGTACA,-0.243
5,GAGGGAAA,-0.24
6,ATGCCTTG,-0.182
7,CGGCTGTA,-0.139
8,GCCAGCTA,-0.144
9,ACTTTACC,-0.101
10,AGTCGGAT,0.296
11,CGTTGTTA,-0.0655
12,CGCTCGAG,-0.12
13,GCAGGACC,-0.0817
14,ACCGACTA,-0.202
15,GAAATCTC,-0.199
16,GGTCTTTA,0.0182
17,AGTATAGG,0.0935
18,GACTCATA,0.0327
19,AACGCCGC,-0.243
20,AACGACCA,-0.101
21,ACGCTGCC,-0.0891
22,GCGAATGA,-0.0128
23,CACGCTTC,-0.244
24,CAGTTGGG,-0.0965
25,ACACCAGT,0.329

row,Sequence,binding signal [E-score]
1,AGCGACGA,-0.0866
2,CCGAACGC,-0.194
3,CGTTCGGC,-0.085
4,CAGTGCCC,-0.0785
5,GTTTGTGA,0.0527
6,AAGTGAGC,-0.00863
7,AGCAGGTA,0.064
8,GAGTGTGC,-0.154
9,AGTTCAAC,-0.224
10,GAAGGTGA,0.0812
11,ACGCCGTG,-0.0407
12,GTTTACCA,-0.113
13,AGGATAAG,0.181
14,AAATTTCA,-0.347
15,GGCGTCAA,-0.206
16,GATTTCGC,-0.103
17,GCTGGGCC,-0.314
18,GCGGGGCC,-0.138
19,GGGCAACC,-0.0964
20,CTGACAAG,-0.215
21,AAAAGACT,-0.123
22,TACCGCAA,0.0325
23,ACACACAC,-0.0151
24,AGCATTGA,-0.0617
25,ACGAGAAA,-0.189

row,Sequence,binding signal [E-score]
1,CAGCCACG,-0.217
2,GCTGCAAA,-0.16
3,AAATGATG,-0.0703
4,CAGGCCCC,-0.276
5,ACAGCGCC,-0.133
6,AGTTGTGA,-0.0336
7,ATAGGAAG,0.0198
8,CTGGGGCA,-0.156
9,AACCAGGA,-0.0447
10,CGTGGTAG,-0.0943
11,GTGTATGA,0.17
12,TTGGGAAA,-0.081
13,CAATTACC,-0.27
14,TATAAGGA,0.136
15,CCAGTTAC,-0.0806
16,AAGACTCA,-0.0424
17,AGGTGATA,0.418
18,AGGACCGC,-0.193
19,CGTTCTAG,-0.0187
20,ATGTCAAA,-0.206
21,GCGTGGCA,-0.0799
22,ATGCCCGG,0.0644
23,CGGCTCTC,-0.0899
24,ATCCCAAT,0.236
25,ACACTGCT,-0.262

row,Sequence,binding signal [E-score]
1,ACTAGGCC,-0.238
2,ATCGAGGC,0.0267
3,CGTACATC,-0.0294
4,GCCGACAA,-0.036
5,ACCAGAAC,-0.0287
6,CGATCATA,0.276
7,ACTCTTCG,-0.04
8,GAGGAGGC,-0.0375
9,ATCACGAG,0.133
10,ACGATTCG,-0.177
11,ATCAAGAA,-0.00943
12,ACGGCAGA,0.0497
13,CTCGGTAC,-0.0172
14,AGGCTTCA,-0.0937
15,AGGGCCGC,-0.157
16,CTGAGAAA,-0.124
17,GGAGCCTA,0.0353
18,AAAATCTT,-0.359
19,GTTTTTTA,-0.0417
20,CGGTAGTC,-0.0497
21,CTGGTTCA,-0.0617
22,AAAGCAAC,-0.225
